Measurements as given in PubChem BioAssay AID1508623 (National Center for Advancing Translational Sciences (NCATS), 2021).
In all, about 48,000 compounds went through this assay and about 450 (0.94%) were called active. Not shown: some 19% with an inconclusive outcome. Calls follow the shape of the dose curve; as a rule, active = well fitted inhibition curve with a large enough effect; inconclusive = small, poorly fitted or top-dose-only effect; inactive = no such curve, though single readings can be large or run the other way. The list shows a part of the results.

Test: Primary qHTS for Identification of Small Molecule Inhibitors of Huntingtin Promoter Activity; also: nearly all actives have a fitted effect of over 50% in size
Conditions: HEK293 HTT promoter firefly luciferase reporter (activity 0% = vehicle and -100% = no light), 24 h; series mostly up to 57.5 µM; activity change, negative = inhibition: at the top concentration
How it was run: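 HEK293 Fluc reporter, 2,500 cells/well, 24 h pre-culture; cpds up to 57.5 uM final, 24 h 37 degrees C; Dual-Glo, 10 min RT; normalized vehicle = 0%, zero RLU = -100%.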

Activity change, negative = inhibition, inactive:
COCCNC(=O)Cn1c(=O)n(CCCCCC(=O)NCc2ccccc2Cl)c(=O)c2sccc21 -2.67%
CCN(CC)CCCNC(=O)CCCn1ncn2c(cc3occc32)c1=O -18.4%
CC(C)(C)C1CCc2c(sc3nc(-c4cc5ccccc5oc4=O)[nH]c(=O)c23)C1 (configuration not stated) 0.941%
COc1ccccc1-c1noc(-c2ccc(NC3CCCCC3)c([N+](=O)[O-])c2)n1 -8.13%
COCCCNC(=O)c1cnc2sc(N3CCCCCC3)nn2c1=O 7.49%
COc1cccc(NC(=O)CCc2nc3c(C)nn(-c4ccc(C)cc4)c3n(C)c2=O)c1 -5.95%
O=c1c(=O)n(Cc2ccc(Cl)cc2)ccn1Cc1ccc(F)cc1 1%
Cc1oc2ncn(CC(C)C)c(=O)c2c1C(=O)NCCc1ccccc1 -5.14%
Cc1ccc(-c2nc(CNC(=O)Nc3ccccc3)c(C)o2)cc1 -1.11%
COc1ccc(-c2cn3cccnc3n2)cc1NC(=O)Cc1ccccc1 3.2%
CCc1nc2cccnc2n1-c1ccc(CC(=O)Nc2c(C)cccc2C)cc1 -14.8%
Cc1cc(C)n2c(Nc3ccc(C(C)C)cc3)c(-c3ccsc3)nc2n1 4.04%
Cc1ccccc1CNC(=O)c1oc2c(c1C)-c1[nH]ncc1CC2 22%
Cc1ccc2nc(Cl)c3cc(C(=O)N4CCCCC4C)sc3c2c1 (configuration not stated) -8.16%
COc1ccc(Cl)cc1NC(=O)CN1C(=O)C(C)(C)c2cc(S(=O)(=O)N3CCCCC3)ccc21 -47.9%
O=P(O)(O)C(O)(Cc1cccnc1)P(=O)(O)O
Cc1cccc(-n2ncc(C(=O)N3CCN(c4ccc(C)cc4C)CC3)c2C2CCN(C(=O)OC(C)(C)C)CC2)c1 3.33%
Cc1cn(C)c(CC(=O)NCc2ccccc2)c1C(=O)O -9.46%
CCOc1ccc(C2c3c(oc4ccc(C)cc4c3=O)C(=O)N2CCCN2CCOCC2)cc1 (configuration not stated) -4.17%
CSc1ncc(C(=O)N2CCN(c3cccc(Cl)c3)CC2)c(C)n1 -12.8%
O=C(CCCn1c(=O)c2cccn2c2cccnc21)NCc1ccccc1Br 4.89%
CCOc1ccc(CCNC(=O)Cn2nnc(-c3ccccc3Cl)n2)cc1OCC -6.69%
Cc1c(C)n(Cc2ccc(F)cc2)c2ccc(C(=O)NCc3ccco3)cc12 -13.3%
O=C(NCCN1CCN(c2cccc(Cl)c2)CC1)Nc1ccccc1C(F)(F)F -25.8%
O=C(CSc1ncc(-c2ccccc2)[nH]1)Nc1ccc(Cl)cc1 2.48%
Cc1ccc(CNc2nc(-c3ccco3)nn2S(=O)(=O)c2ccc3ccccc3c2)cc1 52%
CCOC(=O)c1sc2ccccc2c1S(=O)(=O)N1CCN(c2cccc(C)c2)C(C)C1 (configuration not stated) -19.4%
CC(C)COc1ccc(C(=O)N2CCCCC2CCN2CCCCC2)cc1 (configuration not stated) -8.4%
COc1ccc(CCNC(=O)c2cnn(-c3cccc(C)c3)c2C2CCN(C(=O)OC(C)(C)C)CC2)cc1OC -11.8%
Cc1cccc(-c2nnn3c2nc(NCc2ccc4c(c2)OCO4)c2ccccc23)c1 -3.62%
COc1cccc2c1ncc1c(-c3ccc(C)cc3)nn(-c3ccc(F)cc3)c12 0%
CC(=O)c1ccc(NC(=O)c2noc3c2CSc2ccccc2-3)cc1 22%
CCc1cc(C(=O)Nc2sc(C)c(CC)c2C#N)no1 38.2%
CCCCOc1cccc(C(=O)Nc2cc(NC(=O)c3ccco3)ccc2OC)c1 -25.5%
Cc1ccc(CNC(=O)c2c(O)nc3cc(C)ccn3c2=O)cc1 -2.04%
Cc1ccc2c(c1)-c1c(cnc3cc(-c4ccc(F)cc4)nn13)CO2 -6.51%
CCc1ccc(C2=C(C)C(N3CCC(C(=O)NCc4ccccc4)CC3)=NS2(=O)=O)cc1 -38.4%
COc1ccc(-c2cnc(C)o2)cc1S(=O)(=O)Nc1c(C)cc(C)cc1C -34.3%
COc1cccc(NC(=O)CCc2c(C)nc3nc(CNC(=O)c4cccc(F)c4)nn3c2C)c1 -3.6%
C#CCOc1ccc(-c2nnc(Nc3ccc(NC(C)=O)cc3)c3ccccc23)cc1 -23.8%
Cc1c(Cl)cccc1NC(=O)C1CCCN(c2ncnc3onc(C)c23)C1 (configuration not stated) -13.9%
CCOC(=O)N1CCC(NC(=O)c2cnn(-c3cccc(F)c3)c2-n2cccc2)CC1 -33.4%
NS(=O)(=O)c1ccc(CCNc2ncnc3c2cnn3-c2cccc(Cl)c2)cc1 -32.2%
O=C(NCc1ccccc1Cl)c1ccc2c(c1)N(Cc1ccccc1)C(=O)CS2 -27.9%
COc1ccc(CCC(=O)NCc2nc3cccnc3n2Cc2ccc(F)cc2)cc1 -24.5%
CC1CCN(S(=O)(=O)c2ccc3c(c2)c(=O)c(C(=O)NC(C)c2ccccc2)cn3C)CC1 (configuration not stated) -34.2%
CN(CC(=O)Nc1ccccc1F)S(=O)(=O)c1ccc2c(c1)c(=O)n(C)c(=O)n2C -2.67%
COc1ccc(CNC(=O)c2cc(=O)[nH]c3ccc(S(=O)(=O)N4CCCC4)cc23)c(OC)c1 -21.9%
CC(=O)c1cccc(NC(=O)C(CC(C)C)NS(=O)(=O)c2ccc3c(c2)CCN3C(C)=O)c1 (configuration not stated) -16.1%
COc1ccc(Cl)cc1NC(=O)c1ccc2c(c1)CCN2S(C)(=O)=O -12.8%
Cc1cc(NC(=O)CSc2nc(-c3ccccc3C)nc3c2c(=O)n(C)c(=O)n3C)no1 -11.7%
CCOc1cc(C(=O)Nc2cccc3cccnc23)cc(OCC)c1OCC -23.5%
Cc1ccc(Nc2nc3ccccc3c3nnc(C)n23)c(C)c1 7.33%
COc1ccc(-c2cc3nc(C)c(CCC(=O)N4CCN(c5ccc(F)cc5)CC4)c(C)n3n2)c(OC)c1 -21.5%
CCCCN(CCCC)CCNC(=O)CN1C(=O)CSc2ccc(S(=O)(=O)N3CCOCC3)cc21 -19.2%
COc1ccccc1OCC(=O)NC1CC(=O)N(c2ccc3c(c2)OCCO3)C1 (configuration not stated) -11.4%
CC(=O)c1cccc(Nc2cc(C)nc3nc(Cc4ccccc4)nn23)c1 -8.46%
COc1ccc(NC(=O)c2c(C)oc3ccc(O)c(CN4CCN(Cc5ccccc5)CC4)c23)cc1Cl -17%
CC(=O)c1cc(-c2ccc(F)cc2)n(CC(=O)NC2CCC(C)CC2)c1C (configuration not stated) -27.8%
CC(=O)c1cccc(NC(=O)Nc2nnc(N3CCCC3)s2)c1 -8.9%
CCOC(=O)c1c(C)n(-c2ccccc2)c2ccc(OC(=O)c3cccc(C)c3)cc12 -18.9% [at 11.5 µM]
CCCOc1ccc(CNC(=O)c2ccc(C)c(-n3c(C)nc4cccnc43)c2)cc1 -18.5%
